# Assay results from PubChem BioAssay AID504466 (National Center for Advancing Translational Sciences (NCATS), 2011).
# Among all 330,000 compounds or so, about 4,200 (1.3%) were called active. The inconclusive results got no clear call from the source; some entries with a clear call stand among them for comparison. The call rests on the fitted dose curve; in most records, active means well fitted activation curve with a large enough effect; inconclusive means small, poorly fitted or top-dose-only effect; inactive means no such curve, though single readings can be large or run the other way. Potencies of inconclusive entries are doubtful fits and often do not repeat.
# Test: qHTS screen for small molecules that induce genotoxicity in human embryonic kidney (HEK293T) cells expressing luciferase-tagged ELG1; further: nearly all actives have a fitted effect of over 60% in size; on activity change, positive = activation: % of control where 0% means no effect
# Conditions: HEK293T ELG1-luciferase reporter, luminescence, 16 h; series mostly up to 46 µM; activity change, positive = activation: at the top concentration
# Procedure, shortened: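 Cells (2,000/well) expressing the ELG1-luciferase fusion are dosed by pin tool and kept 16 hr at 37 °C, 5% CO2. Signal comes from ONE-Glo luciferase reagent after 30 min at room temperature.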
# Potency means the concentration at half of the fitted maximal effect; tags describe the fitted curve by direction and shape.
Structure (SMILES),Potency,"activity change, positive = activation"
COC(=O)c1sccc1NC(=O)Nc1ccc(C)c(C)c1,active: 2.31 µM,–
Cc1ccc2sc(N(CCCN(C)C)C(=O)c3ccc(S(=O)(=O)N(C)C4CCCCC4)cc3)nc2c1C,"inconclusive: 6.51 µM [activator, partial curve, poor fit]",–
CCc1cc2c(SCC(=O)Nc3ccc(NC(C)=O)cc3)ncnc2s1,–,inactive: 0.314%
CCc1ccc2oc(-c3cc(N)ccc3Cl)nc2c1,active: 2.06 µM,–
COc1ccc2oc(C(=O)NC3CCCCC3)c(C)c2c1,active: 3.66 µM,–
Cc1ccc(NC(=O)c2sc3nc(CCl)[nH]c(=O)c3c2C)c(C)c1,"inconclusive: 16.4 µM [activator, partial curve, poor fit]",–
Oc1ccc(-c2csc(-c3ccccc3)n2)cc1O,"inconclusive: 6.51 µM [activator, partial curve]",–
Cc1ccc(C)c(Cn2c(C)nc3c(sc(=S)n3-c3ccccc3)c2=O)c1,"inconclusive: 0.0046 µM [activator, full curve, poor fit]",–
Cc1csc(NC(=O)c2ccc(Cl)cc2[N+](=O)[O-])n1,"inconclusive: 2.91 µM [activator, partial curve, poor fit]",–
CN1CCN(/N=C/c2ccc(Br)cc2)CC1,"inconclusive: 9.2 µM [activator, partial curve]",–
Cc1nn(C(C)C(=O)N2CCc3ccccc32)c(C)c1[N+](=O)[O-] (stereo not given),–,inactive: 1.18%
COc1ccc(-c2ccc(SCC(=O)Nc3cc(C)on3)nn2)cc1OC,–,inactive: 0.796%
N/C(=N\OC(=O)c1ccc(Cl)cc1Cl)c1cccnc1,active: 2.59 µM,–
O=C(/C=C/c1ccc(Cl)cc1Cl)NC(=S)Nc1ccccn1,"inconclusive: 7.31 µM [activator, partial curve, poor fit]",–
CCOC(=O)c1ccc(NC(=O)CSc2ccc(-c3ccccn3)nn2)cc1,"inconclusive: 29.1 µM [activator, single point]",–
Cc1ccc2cccc(S(=O)(=O)NC3CCS(=O)(=O)C3)c2n1 (stereo not given),–,inactive: -10.8%
O=C(CSCc1ccc(Cl)c(Cl)c1)Nc1c[nH]c(=O)[nH]c1=O,"inconclusive: 25.9 µM [activator, partial curve, poor fit]",–
CN(C)Cc1nnnn1-c1ccccc1,–,inactive: -0.117%
Cc1nnc(C)n1/N=C/c1ccc(-c2ccccc2Cl)o1,active: 23.1 µM,–
COc1cccc(N2CCN(C(=O)C3CCCN(S(=O)(=O)c4ccc5c(c4)oc(=O)n5C)C3)CC2)c1 (stereo not given),–,inactive: -10.6%
COCC(=O)N(C)c1nnc(-c2ccccn2)s1,active: 20.6 µM,–
COc1cccc(-c2cc(C(=O)NCc3cccs3)no2)c1,active: 23.1 µM,–
COc1ccc(C(=O)Nn2c(SCc3ccc([N+](=O)[O-])cc3)nc3ccccc3c2=O)cc1,"inconclusive: 0.92 µM [activator, full curve]",–
CCCOc1ccc(CNC(=O)c2ccc3nc(N4CCOCC4)sc3c2)cc1,"inconclusive: 29.1 µM [activator, single point]",–
O=C(Cc1coc2cc3c(cc12)CCC3)OCC(=O)N1CCCC1=O,–,inactive: -7.34%

Structure (SMILES),Potency,"activity change, positive = activation"
Cc1c(CN2CCN(CC(C)C)C(CCO)C2)[nH]c2ccc(Cl)cc12 (stereo not given),–,inactive: 1.13%
CC(=O)Nc1ccc(SCc2ncc(-c3ccccc3)o2)cc1,"inconclusive: 9.2 µM [activator, partial curve]",–
Cc1ccc(-c2cc(-c3ccccc3C)[nH]n2)c(O)c1,"inconclusive: 9.2 µM [activator, partial curve, poor fit]",–
O=C(NC1CC1)C1CCN(C2CCN(C(=O)c3c(F)cccc3Cl)CC2)CC1,–,inactive: -0.0335%
Cc1cc(=O)[nH]c2ccc(S(=O)(=O)N3CCOCC3)cc12,"inconclusive: 18.3 µM [activator, partial curve, poor fit]",–
O=C(CCCSc1nc2ccccc2[nH]1)N1CCN(c2ccccc2)CC1,–,inactive: -4.8%
Cc1c(Cc2ccccc2)c(=O)oc2cc(OCC(=O)c3ccccc3)ccc12,–,inactive: 0.972%
O=C(NCCC1=CCCCC1)c1ccc(CN2CCOCC2)cc1,"inconclusive: 5.17 µM [activator, full curve, poor fit]",–
CCc1c(C)c2cc(Cl)c(O)c(CN3CCCC3)c2oc1=O,–,inactive: 1.53%
Cc1nc(-c2ccccc2)sc1-c1ccn[nH]1,active: 2.59 µM,–
CCOC(=O)CCSc1nc(C)c2cc(C)ccc2n1,active: 18.4 µM,–
Cc1cccc(C(=O)N/N=C/c2ccccn2)c1,"inconclusive: 20.6 µM [activator, single point]",–
Cc1cc(C(=O)CSc2nc3ccccc3c(=O)[nH]2)c(C)n1C,active: 14.1 µM,–
CC1=CC(=C2C(=O)c3ccccc3C2=O)C=C(C)O1,–,inactive: 19.7%
CCN(CC)c1ccc(/C=N\NC(=O)c2cccc3cc[nH]c23)cc1,"inconclusive: 29.1 µM [activator, partial curve, poor fit]",–
COCC(=O)Nc1ccc(C(=O)Nc2ccccc2Cl)cc1,"inconclusive: 23.1 µM [activator, partial curve, poor fit]",–
N/C(=N\OC(=O)c1ccc(Cl)c(Cl)c1)c1ccccn1,"inconclusive: 3.66 µM [activator, full curve, poor fit]",–
CC(C)c1cc(C(F)(F)F)n2nc(C(=O)Nc3ccc4c(c3)OCO4)cc2n1,"inconclusive: 18.4 µM [activator, single point]",–
CC(Sc1ncnc2c1cnn2-c1ccccc1)C(=O)Nc1ccc(N2CCOCC2)cc1 (stereo not given),–,inactive: 4.63%
Fc1ccc(N/N=C/c2ccc(N3CCOCC3)cc2)c(F)c1,"inconclusive: 4.61 µM [activator, partial curve]",–
CC(=O)NCCC(=O)Nc1nc(-c2ccc3ccccc3c2)cs1,"inconclusive: 18.3 µM [activator, partial curve, poor fit]",–
CCOc1ccc2nc(-c3cc(NC(C)=O)ccc3O)sc2c1,"inconclusive: 9.2 µM [activator, partial curve]",–
c1ccc(COc2ccc(OCCN3CCCC3)cc2)cc1,–,inactive: 4.77%
Cc1ccc(S(=O)(=O)NC(CC(C)C)C(=O)NCC(C)(C)N2CCOCC2)cc1 (stereo not given),–,inactive: -0.515%
COc1ccc(C2=NO[C@@](CC(=O)O)(C(=O)Nc3ccc4c(c3)OCCO4)C2)cc1,–,inactive: 3.66%

Structure (SMILES),Potency,"activity change, positive = activation"
Cc1ccc(NC(=S)c2nc3ccccc3[nH]2)cc1,"inconclusive: 2.06 µM [activator, single point]",–
O=C(Nc1cccnc1)C1OCCc2ccccc21 (stereo not given),–,inactive: -2.06%
C=C(CC)C(=O)c1ccc(OCC(=O)O)c(Cl)c1Cl,"inconclusive: 32.6 µM [activator, partial curve, poor fit]",–
CC(C)(C)c1nnc2sc(SCC(=O)c3ccccc3)nn2c1=O,"inconclusive: 35.5 µM [activator, single point]",–
O=C(Nc1nc(-c2ccccc2)cs1)c1ccccc1F,"inconclusive: 18.3 µM [activator, partial curve]",–
Cc1nc2cc(-n3ccc(=O)cc3)ccc2n1-c1ccccc1,"inconclusive: 29.1 µM [activator, single point]",–
COc1ccc(/C=N/NC(=O)c2nonc2C)cc1,"inconclusive: 25.9 µM [activator, partial curve, poor fit]",–
O=C(N/N=C/c1c[nH]c2ccccc12)c1cccs1,active: 23.1 µM,–
O=C(COc1ccc2ccccc2c1Br)Nc1ncn[nH]1,"inconclusive: 18.4 µM [activator, partial curve]",–
Cc1csc(NC(=O)c2nc3nc(C)cc(C)n3n2)n1,"inconclusive: 6.51 µM [activator, partial curve, poor fit]",–
Cn1c(-c2ccc(C(F)(F)F)cc2)cc2onc(-c3ccccc3)c2c1=O,"inconclusive: 0.92 µM [activator, full curve]",–
O=c1c2c(nc3cc(-c4ccccc4Cl)[nH]n13)CCS2,"inconclusive: 16.4 µM [activator, partial curve]",–
COc1ccccc1NC(=O)Nc1ccc2c(c1)nc(C)n2C,"inconclusive: 2.31 µM [activator, partial curve]",–
Cc1nc(SCC(=O)Nc2ccc3[nH]c(=O)[nH]c3c2)nc(C)c1C,–,inactive: 0.4%
Cc1ccsc1C(=O)NNC(=O)COc1ccc(Br)cc1,–,inactive: 6.26%
Cc1ccc(NC(=O)CN(C)C(=O)CSc2ccccc2F)cc1,–,inactive: -0.171%
Cc1c(-c2nc(-c3cccnc3)no2)cccc1[N+](=O)[O-],"inconclusive: 18.3 µM [activator, partial curve, poor fit]",–
N/C(=N\OC(=O)CCc1ccccc1)c1ccccc1Cl,"inconclusive: 23.1 µM [activator, single point]",–
CCc1n[n+](CC(=O)c2ccccc2)c(N)s1,"inconclusive: 0.316 µM [activator, partial curve, poor fit]",–
COC(=O)c1cccc(NC(=O)NC(=O)c2ccc(Cl)cc2)c1,"inconclusive: 20.6 µM [activator, partial curve]",–
COCCn1cnc2c1c(=O)n(CC(=O)OCC(=O)NCC(F)(F)F)c(=O)n2Cc1ccccc1,–,inactive: 1.41%
COc1ccc(CCNc2ncccc2C#N)cc1OC,"inconclusive: 16.4 µM [activator, single point]",–
Cc1sc(NC(=O)C2CCCCC2C(=O)O)c(C(N)=O)c1-c1ccccc1 (stereo not given),"inconclusive: 8.2 µM [activator, partial curve]",–
COc1ccc(NC(=O)c2ccc(NC(=O)c3ccncc3)cc2)cc1,active: 10.3 µM,–
Cc1ccc(C(=O)NC(=S)Nc2cccnc2Cl)cc1,"inconclusive: 9.2 µM [activator, partial curve]",–
